In PubChem BioAssay AID1745845 (National Center for Advancing Translational Sciences (NCATS), 2022):
About 2,600 (0.72%) of roughly 360,000 compounds were called active. Inconclusive results, whose numbers are uncertain, are shown with a selection of clear calls. Calls follow the shape of the dose curve; as a rule, active = well fitted inhibition curve with a large enough effect; inconclusive = small, poorly fitted or top-dose-only effect; inactive = no such curve, though single readings can be large or run the other way. A potency beside an inconclusive call is a rough fit, not a confirmed value.

assay: Primary qHTS for Inhibitors of ATXN expression; details: HEK-293 ATXN2-luciferase reporter, luminescence, 24 h; series mostly up to 57 µM; also: nearly all actives have a fitted effect of over 55% in size
How it was run: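 qHTS (up to 57 uM final) was run with 24 h compound exposure of reporter cells at 37 °C. Each well was multiplexed: SteadyGlo luminescence measured ATXN2-luciferase expression after a fluorogenic Gly-Phe-AFC viability readout (25 uM final).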
Potency is read from the fitted curve at half-maximal effect; tags tell the direction and shape of the fitted curve.

Row | Compound | Potency
1 | CC(C)Nc1nc(-c2ccccn2)nc(-c2ccccc2)c1C#N | inconclusive: 10 µM [inhibitor, partial curve, poor fit]
2 | COc1ccccc1NS(=O)(=O)c1ccc(NN=C2CCCCC2)c([N+](=O)[O-])c1 | inactive
3 | COC(=O)c1ccc(Cn2cnc3c(sc4nc(N5CCOCC5)c5c(c43)CCCC5)c2=O)o1 | inconclusive: 39.8 µM [inhibitor, partial curve, poor fit]
4 | O=C(OCc1cn([C@@H]2CN(CC3CCCCC3)[C@@H](c3ccccc3)C[C@H]2O)nn1)c1ccccc1 | inconclusive: 39.8 µM [inhibitor, single point]
5 | COc1ccc(S(=O)(=O)N2CCC(C(=O)Nc3ccc(S(=O)(=O)N4CCCC4)cc3)CC2)cc1OC | inactive
6 | COC(=O)[C@H](CCSC)NC(=O)N1CCC(C)CC1 | inactive
7 | CC1C(=O)N(Cc2cn(CCC3OCCCO3)nn2)CCS(=O)(=O)N1Cc1ccc(-c2ccc(Cl)cc2)cc1 (stereo not given) | active: 17.8 µM
8 | CCOC(=O)C1=C(C)N(C)C(=S)NC1c1ccccc1 (stereo not given) | inactive
9 | Cc1cc(C)cc(-n2c(C)cc(/C=N/NC(=O)CSc3ncccn3)c2C)c1 | inactive
10 | CCOC(=O)c1cc(OC)c2cccc(CN3CCCC(C)(C(=O)NCCOC)C3)c2c1 (stereo not given) | inconclusive: 17.8 µM [inhibitor, partial curve, poor fit]
11 | Cc1cc(C)c(Cn2c3ccccc3c3cnn(CC(=O)N4CCCCCC4)c(=O)c32)c(C)c1 | inactive
12 | Cc1cc(C)cc(NC(=O)c2cc(S(=O)(=O)NCc3ccco3)ccc2F)c1 | inconclusive: 15.8 µM [inhibitor, partial curve]
13 | COc1ccc(NC(=O)Cn2nnc(-c3ccccc3NS(=O)(=O)c3ccc(OC)cc3)n2)cc1 | inactive
14 | CCOc1cc(C(=O)CSc2nnc(CNc3ccc(Cl)cc3)o2)ccc1NC(=O)CC | active: 31.6 µM
15 | O=C(CSc1nnc(COc2cccc3cccnc23)o1)N1CCc2ccccc21 | inactive
16 | O[C@H]1C[C@H](c2ccccc2)N(Cc2cccs2)C[C@@H]1n1cc(-c2ccc(F)cc2)nn1 | active: 15.8 µM
17 | CCN(CC)S(=O)(=O)c1ccc(C)c(NC(=S)N2CCN(c3ccccn3)CC2)c1 | inconclusive: 39.8 µM [inhibitor, single point]
18 | Cc1nc(NC(=O)CSc2nc3cccnc3n2Cc2ccccc2)sc1C | inconclusive: 31.6 µM [inhibitor, partial curve]
19 | Cc1ccc(NS(=O)(=O)c2ccc3c(c2)N(C)CCO3)cc1 | inactive
20 | COC(=O)[C@@H](NC(=O)Nc1ccc(OC(F)(F)F)cc1)C(C)C | inactive
21 | CCOc1ccc2[nH]c(=O)c(CN(Cc3ccco3)C(CC)c3nnnn3Cc3ccccc3)cc2c1 (stereo not given) | inconclusive: 22.4 µM [inhibitor, single point]
22 | O=C(NNC(=S)Nc1cccc(C(F)(F)F)c1)c1cccc(Cl)c1 | inconclusive: 23.8 µM [inhibitor, single point]

Row | Compound | Potency
23 | CCCCc1ccc(NC(=O)CSc2nc(=O)n(CCN(CC)CC)c3c2CCCC3)cc1 | inconclusive: 31.6 µM [inhibitor, single point]
24 | CCN(CC)CCNC(=O)C(Cl)=C1C(Cl)=C(Cl)C(Cl)=C1Cl | inconclusive: 39.8 µM [inhibitor, single point]
25 | Cc1cccc(N2CCN(C(=O)C3CC(=O)N(c4ccc5c(c4)OCCO5)C3)CC2C)c1 (stereo not given) | inconclusive: 39.8 µM [inhibitor, single point]
26 | COc1ccc(S(=O)(=O)N(CCc2ccccc2)CC(=O)Nc2ccc(C)c(C)c2)cc1OC | inconclusive: 39.8 µM [inhibitor, single point]
27 | O=C(Nc1ccc(Oc2ncnc3cc(Cl)ccc23)nc1)Nc1cccc(C(F)(F)F)c1 | inactive
28 | C=CCn1c(=NC(=O)c2sc3ccccc3c2Cl)sc2cc(S(N)(=O)=O)ccc21 | inconclusive: 22.4 µM [inhibitor, partial curve]
29 | CCOC(=O)c1[nH]c(C)c(C(=O)Nc2ccccc2F)c1C | inactive
30 | O=C(O)c1cn(-c2ccc(F)cc2)c2cc(N3CCNCC3)c(F)cc2c1=O | inconclusive: 10.9 µM [inhibitor, partial curve, poor fit]
31 | COc1ccc(CCNC(=O)Nc2ccc([N+](=O)[O-])cc2)cc1OC | inconclusive: 28.2 µM [inhibitor, partial curve, poor fit]
32 | CCCOc1c(Br)cc(C(=O)OCC(=O)NC(=O)c2cccn2C)cc1OC | inconclusive: 39.8 µM [inhibitor, single point]
33 | CCOC(=O)N1CCN(C(=O)CS(=O)(=O)c2cn(Cc3ccc(Cl)cc3)c3ccccc23)CC1 | inactive
34 | Oc1ccc(/C=N/NC(=S)Nc2cccnc2)c(O)c1 | inconclusive: 3.16 µM [inhibitor, partial curve, poor fit]
35 | CN1CCN(NC(=O)c2cn(-c3ccccc3)nc2-c2cccc(Br)c2)CC1 | inactive
36 | Cc1coc2cc3oc(=O)c(CCC(=O)NC4CC4)c(C)c3cc12 | inactive
37 | CCn1cc(C(=O)N2CCN(c3cccc(C(F)(F)F)c3)CC2)c2cc(OC)c(OC)cc2c1=O | inconclusive: 14.1 µM [inhibitor, partial curve, poor fit]
38 | CC(=O)Nc1ccc(NC(=O)C(=O)NCC(c2ccco2)N2CCc3ccccc32)cc1 (stereo not given) | inconclusive: 22.4 µM [inhibitor, partial curve, poor fit]
39 | COc1ccc(NC(=O)C2CC(=O)N(CCc3ccc(Cl)cc3)C2)cc1 (stereo not given) | inactive
40 | CCOC(=O)N1CCC(n2c(SCC(=O)N3CCC(C)CC3)nc3ccccc3c2=O)CC1 | inconclusive: 15.8 µM [inhibitor, single point]
41 | Cc1ccc(-n2cc(C(=O)c3ccccc3O)cn2)cc1 | inconclusive: 2.24 µM [inhibitor, partial curve, poor fit]
42 | COc1ccccc1N(C)S(=O)(=O)c1ccc(C(=O)Nc2nccs2)cc1 | inactive
43 | Cc1ccc(NC(=O)CN(C)C(=O)Cc2ccc3c(c2)CCC3)cc1 | inactive
44 | C=C1CCC(O)C2(C)CCC3C(C)C(=O)OC3C12O (stereo not given) | inactive

Row | Compound | Potency
45 | CC(C)(C)OC(=O)CNC(=O)c1[nH]cnc1C(=O)N[C@@H](CCCCNC(=O)OC(C)(C)C)C(=O)OC(C)(C)C | inconclusive: 39.8 µM [inhibitor, single point]
46 | CCN(CC)CCSc1nc2ccccc2n1Cc1ccccc1 | inconclusive: 42.3 µM [inhibitor, partial curve, poor fit]
47 | Cn1c(=O)c2c(nc(NCc3ccccc3)n2Cc2ccccc2)n(C)c1=O | inconclusive: 22.4 µM [inhibitor, single point]
48 | Cc1cccc(OC(C)C(=O)Nc2ccc(S(=O)(=O)N3CCCC3)cc2)c1 (stereo not given) | inconclusive: 5.01 µM [inhibitor, full curve, poor fit]
49 | COc1cc2c(cc1OC)C1=C(C#N)CC/C(=N\S(=O)(=O)c3cccc(Cl)c3)N1CC2 | inactive
50 | Cc1ccc(NC(=O)CSc2nc3ccccc3c(=O)n2CCCN2CCCCC2)cc1C | inconclusive: 25.1 µM [inhibitor, partial curve, poor fit]
51 | COc1ccc2[nH]c3c(C)c4cc[n+](C)cc4c(C)c3c2c1 | inconclusive: 25.1 µM [inhibitor, single point]
52 | CCc1cccc(NC(=O)C2CCN(C(=O)c3cnn(-c4ccccc4)c3-n3cccc3)CC2)c1 | inconclusive: 20 µM [inhibitor, single point]
53 | CCCCNC(=O)C(C)N(CCN(C)C)C(=O)CCCN1C(=O)NC(c2ccc(Cl)cc2)C(C(=O)OCc2ccccc2)=C1C (stereo not given) | inconclusive: 28.2 µM [inhibitor, single point]
54 | CCOC(=O)c1c(S(=O)(=O)N2CCCC(C(=O)NCc3ccc(Cl)cc3)C2)c(C)n(C)c1C (stereo not given) | inactive
55 | Cc1c(-c2cccc(Cl)c2)nc2ccccc2c1C(=O)OCC(=O)Nc1ccc2c(c1)OCO2 | inconclusive: 37.7 µM [inhibitor, partial curve, poor fit]
56 | CS(=O)(=O)c1cnc(-c2ccccc2)nc1-c1ccccc1Cl | inactive
57 | O=C1N[C@H](Cc2ccccc2)COC(=O)[C@@H](Cc2ccc(F)cc2)CC/C=C/C[C@H]1CC(=O)N(CCO)Cc1ccccc1 | inconclusive: 39.8 µM [inhibitor, single point]
58 | FC(F)(F)c1cccc(NC(=S)NCc2ccc(Cl)cc2)c1 | inconclusive: 37.7 µM [inhibitor, partial curve, poor fit]
59 | COc1ccccc1/C=C1\CCCC2=C1Nc1nnnn1C2c1ccccc1OC (stereo not given) | inactive
60 | CCCc1[nH]n(-c2ccc([N+](=O)[O-])cc2)c(=O)c1C=NCCc1c[nH]c2ccccc12 | inactive
61 | CC1C(=O)N(Cc2cn(CC3CCCCC3)nn2)CCS(=O)(=O)N1Cc1ccc(-c2ccc(Cl)cc2)cc1 (stereo not given) | inconclusive: 28.2 µM [inhibitor, single point]
62 | COc1ccc(NS(=O)(=O)c2ccc(OC)c(N(C)S(=O)(=O)c3ccc(Cl)cc3)c2)cc1 | inconclusive: 31.6 µM [inhibitor, single point]
63 | COc1ccc(C(=O)N/N=C/c2sc3ccccc3c2O)cc1 | inconclusive: 2.99 µM [inhibitor, full curve, poor fit]
64 | CCOc1ccc(N2C(=O)CC(Sc3ncccn3)C2=O)cc1 (stereo not given) | inactive
65 | NC(=O)c1c(NC(=O)c2ccc(S(=O)(=O)N3CCOCC3)cc2)sc2c1CCCCC2 | inconclusive: 18.9 µM [inhibitor, partial curve, poor fit]
